In this assay the target is donor Ub (E2-linked ubiquitin) (UniProt P0CG48 part only, C-terminal Gly76 in oxyester linkage to Ser85 of UbcH5b^C85S). As to the kind of experiment: crystal structure.

B1: OTUB1^Δ[…] (the OTUB1 part of the crystallised fusion) (domain or fragment)
chain: not shown
Regarding B1, the binding result is on record as “binds”.

For the origin of these results see paper PMC3306812 (Molecular Cell, 2012).
